Test results from PubChem BioAssay AID1460 (National Center for Advancing Translational Sciences (NCATS), 2008).
Out of some 270,000 compounds screened, about 5,800 (2.1%) were called active. Inconclusive means that the source gave no clear call. Such entries were picked first, then a sample of the others. Calls follow the shape of the dose curve; as a rule, active = well fitted inhibition curve with a large enough effect; inconclusive = small, poorly fitted or top-dose-only effect; inactive = flat fitted curve, though single readings scatter. Potencies beside an inconclusive call are fits to weak or partial responses and may not hold up.
% is scaled to controls: 0 for no effect and ±100 for the full control effect; potency is read from the fitted curve at half-maximal effect; tags tell the direction and shape of the fitted curve.
Also: nearly all actives have a fitted effect of over 55% in size.

These compounds were tested against Microtubule-associated protein tau (Homo sapiens) (UniProt P10636) (assay: qHTS for Inhibitors of Tau Fibril Formation, Thioflavin T Binding). Conditions: recombinant tau K18 P301L (four-repeat tau fragment), heparin-induced fibrillization, ThT fluorescence; series mostly up to 57.4 µM; activity, negative = inhibition: at the top concentration.
Sequence of UniProt P10636 (P10636 whole entry, looked up, the tested form may be a part): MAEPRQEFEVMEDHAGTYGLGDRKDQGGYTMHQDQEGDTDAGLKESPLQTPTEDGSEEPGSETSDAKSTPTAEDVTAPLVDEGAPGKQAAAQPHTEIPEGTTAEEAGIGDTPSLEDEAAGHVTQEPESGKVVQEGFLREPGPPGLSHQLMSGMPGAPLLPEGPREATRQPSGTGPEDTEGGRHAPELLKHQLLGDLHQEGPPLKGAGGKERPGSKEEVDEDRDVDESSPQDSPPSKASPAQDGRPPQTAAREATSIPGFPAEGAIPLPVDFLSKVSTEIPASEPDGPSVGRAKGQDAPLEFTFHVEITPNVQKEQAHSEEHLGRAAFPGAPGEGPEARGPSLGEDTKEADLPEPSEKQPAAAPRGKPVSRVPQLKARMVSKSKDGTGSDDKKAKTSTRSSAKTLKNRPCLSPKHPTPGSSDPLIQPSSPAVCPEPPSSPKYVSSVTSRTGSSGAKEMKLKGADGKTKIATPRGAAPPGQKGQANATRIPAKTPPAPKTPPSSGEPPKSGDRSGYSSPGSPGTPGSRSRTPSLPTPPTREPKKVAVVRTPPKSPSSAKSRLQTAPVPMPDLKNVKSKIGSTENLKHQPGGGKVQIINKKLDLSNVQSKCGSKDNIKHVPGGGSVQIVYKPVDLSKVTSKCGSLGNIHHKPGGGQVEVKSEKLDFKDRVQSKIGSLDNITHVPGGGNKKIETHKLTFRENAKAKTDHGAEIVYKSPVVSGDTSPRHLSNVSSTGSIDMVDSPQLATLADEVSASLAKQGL
In short: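 Heparin-induced fibrillization of the P301L-mutant K18 repeat-domain fragment of human tau was followed by ThT binding in quantitative high-throughput format.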
`Cc1cc(O)c(C(C)C)cc1N=Cc1cc([N+](=O)[O-])ccc1O` was tested, and the Potency was active: 3.55 µM. For `O=C(CSc1nc2c(c(=O)[nH]1)CCCC2)Nc1cccc(O)c1`, the Potency was inconclusive: 39.8 µM [inhibitor, single point]. `CC/C(O)=C(/C#N)c1nnc2n1CCCCC2` was tested, and the “activity, negative = inhibition” value was inactive: -6.55%. In the case of `NS(=O)(=O)c1cc(C(=O)OCC(=O)c2ccccc2)c(Cl)cc1Cl`, the “activity, negative = inhibition” value is reported as inactive: -1.9%. `COCCNC(C(=O)Nc1ccc(C)cc1[N+](=O)[O-])c1ccccc1` (stereo not given) was tested, and the Potency was inconclusive: 15.8 µM [inhibitor, partial curve]. `Cc1nn(-c2nc3ccccc3[nH]2)c(N)c1-c1ccccc1` was tested, and the Potency was inconclusive: 2.24 µM [inhibitor, partial curve]. For `Cc1cc2n(n1)SC(Nc1ccc(F)c(Cl)c1)N2` (stereo not given), the “activity, negative = inhibition” value was inactive: -2.85%. For `CCc1ccc[n+](-c2[nH]c(=O)sc2/C=N/NC([S-])=Nc2ccccc2)c1`, the Potency was active: 25.1 µM. With `CC(C)(C)NC(=S)N/N=C\c1ccc(-c2ccc([N+](=O)[O-])cc2)o1` the Potency was active: 7.08 µM. With `Cc1ccc(C2N(c3nccs3)C(=O)C3CCCN32)cc1` (stereo not given) the Potency was inconclusive: 25.1 µM [inhibitor, single point]. With `Cc1ccc(C)c(N2CCN(CCCNC(=O)Cn3c(-c4cccs4)cc4ccccc43)CC2)c1` the Potency was inconclusive: 15.8 µM [inhibitor, partial curve]. In the case of `O=C(CCC1CC(=O)Nc2ccccc21)NCc1ccc(F)cc1` (stereo not given), the “activity, negative = inhibition” value is reported as inactive: -2.28%. With `CC#CC#Cc1cccc(=O)o1` the Potency was inconclusive: 20 µM [inhibitor, single point]. In the case of `CN(C)C1C(=O)C(C(N)=O)=C(O)[C@@]2(O)C(=O)C3=C(O)c4c(O)ccc(Cl)c4[C@@H](O)C3C[C@@H]12` (stereo not given in full), the Potency is reported as inconclusive: 22.4 µM [inhibitor, partial curve]. `Cc1ccc2c(c1)c(N=NC(N)=O)c(O)n2C` was tested, and the Potency was inconclusive: 39.8 µM [inhibitor, single point]. With `N#Cc1c(-c2ccccc2)ccnc1Oc1ccccc1` the “activity, negative = inhibition” value was inactive: -8.41%. With `Cc1ccc(C(c2sc3nc(C)nn3c2O)N2CCN(c3ccccc3F)CC2)cc1` (stereo not given) the Potency was inconclusive: 22.4 µM [inhibitor, partial curve, poor fit]. With `Clc1ccc(-c2ccc(SCc3ccccn3)nn2)cc1` the Potency was inconclusive: 4.47 µM [inhibitor, full curve]. With `c1cc(Nc2ncnc3sccc23)cc(-c2nnc3n2CCCCC3)c1` the “activity, negative = inhibition” value was inactive: -8.91%. With `COc1cccc(NC(=S)NNC(=O)c2ccccc2OC(F)F)c1` the Potency was inconclusive: 22.4 µM [inhibitor, single point]. With `CCc1cc(-c2nc(N)ncc2-c2ccc(Br)cc2)c(O)cc1OC` the Potency was inconclusive: 22.4 µM [inhibitor, partial curve]. `O=C(/C=C/c1ccco1)Nc1cc(Cl)ccc1C(=O)O` was tested, and the Potency was inconclusive: 28.2 µM [inhibitor, partial curve]. With `COc1ccc(C(=O)NNC2=Nc3cccc4cccc2c34)cc1` the Potency was inconclusive: 1.12 µM [inhibitor, full curve]. With `COc1cccc(CNC(=O)Cn2cc3c(n2)-c2c(oc(C(=O)N4CCOCC4)c2C)CC3)c1` the “activity, negative = inhibition” value was inactive: -2.76%. For `COC(=O)c1cc(NC(=O)c2c(Cl)cnn2C)cc(C(=O)OC)c1`, the “activity, negative = inhibition” value was inactive: -0.23%. For `CC1(C)CC(=O)c2sc(NS(=O)(=O)c3ccc(F)cc3)nc2C1`, the “activity, negative = inhibition” value was inactive: -11.8%. For `COc1ccccc1CNc1nc(-c2ccco2)nn1C(=O)c1ccccc1[N+](=O)[O-]`, the Potency was inconclusive: 10 µM [inhibitor, partial curve]. In the case of `COCCCNC(=O)Cn1c(=O)n(-c2cccc(C)c2)c(=O)c2c3c(sc21)CN(C(C)=O)CC3`, the “activity, negative = inhibition” value is reported as inactive: -14.2%. `CCc1cc(=O)oc2cc(C)cc(OCc3nn[nH]n3)c12` was tested, and the “activity, negative = inhibition” value was inactive: -8.96%. For `COc1ccc(CNC(=O)c2c(N)n(CCCN3CCOCC3)c3nc4ccccc4nc23)cc1`, the Potency was inconclusive: 12.6 µM [inhibitor, partial curve]. For `CC(=O)NC(=O)NC1OC(=O)C(Cl)=C1Cl` (stereo not given), the Potency was inconclusive: 15.8 µM [inhibitor, partial curve]. For `COc1cc(C(=O)O/N=C(\N)c2ccc([N+](=O)[O-])cc2)cc(OC)c1OC`, the Potency was inconclusive: 3.98 µM [inhibitor, full curve, poor fit]. `COC(=O)c1ccccc1NC(=O)CSc1nc2sc3c(c2c(=O)[nH]1)CCCC3` was tested, and the Potency was active: 7.94 µM. With `COc1ccc(Cl)cc1NC(=O)c1c(C(=O)Nc2cccc(C)c2C)sc2nc(C)cc(=O)n12` the Potency was inconclusive: 15.8 µM [inhibitor, partial curve]. With `Cc1ccc(NC(=O)c2nnn(CC(=O)Nc3ccccc3)c2N)cc1C` the Potency was inconclusive: 14.1 µM [inhibitor, partial curve, poor fit]. With `CCOC(=O)CSc1nnc(CCCCCN2C(=O)c3cccc4cccc(c34)C2=O)o1` the Potency was inconclusive: 8.91 µM [inhibitor, full curve, poor fit]. In the case of `Cc1ccc(NC(=O)C(OC(=O)c2ccc(NC(N)=O)cc2)c2ccccc2)cc1Cl` (stereo not given), the Potency is reported as inconclusive: 1.78 µM [activator, full curve, poor fit]. `O=C(Nc1ccccc1)c1ccc(NCc2ccco2)c(S(=O)(=O)N2CCOCC2)c1` was tested, and the Potency was inconclusive: 35.5 µM [inhibitor, partial curve]. With `Cc1ccc(C(=O)c2cn(Cc3ccc(F)cc3)c3nc(C)ccc3c2=O)cc1` the “activity, negative = inhibition” value was inactive: -1.92%. In the case of `CC1=[N+](C)c2c(ccc3cccnc23)C1(C)C`, the Potency is reported as active: 7.08 µM. With `c1ccc(CSc2nnc(-c3ccco3)n2Cc2ccco2)cc1` the Potency was inconclusive: 35.5 µM [inhibitor, single point]. `Cc1ccc(C(=O)NC(=S)Nc2ccc(-c3ccc(CO)o3)cc2)cc1` was tested, and the Potency was inconclusive: 1 µM [inhibitor, full curve]. `C/C(=N\NC(=O)c1ccc(NS(=O)(=O)c2cccs2)cc1)c1cccs1` was tested, and the “activity, negative = inhibition” value was inactive: 4.51%. In the case of `O=c1c(C=Nc2cccc(C(F)(F)F)c2)c[nH]n1-c1cccc(Cl)n1`, the Potency is reported as inconclusive: 20 µM [inhibitor, single point]. `COc1ccc(-c2nc3ccccc3o2)cc1NC(=O)c1ccc(N2CCC(C)CC2)c([N+](=O)[O-])c1` was tested, and the Potency was inconclusive: 0.794 µM [inhibitor, full curve, poor fit]. In the case of `O=C(CN1CCCN(S(=O)(=O)c2ccc(F)cc2)CC1)Nc1ccccc1Br`, the Potency is reported as inconclusive: 39.8 µM [inhibitor, partial curve]. For `Cc1ccc(-c2nc(-c3ccccn3)no2)cc1Cl`, the Potency was inconclusive: 5.62 µM [inhibitor, partial curve]. `N#C/C(=C\c1ccc(-c2ccccc2[N+](=O)[O-])o1)C(=O)Nc1nc(-c2cccs2)cs1` was tested, and the Potency was active: 2.82 µM. In the case of `CCOC(=O)c1c(C)nc(C)c2c(=O)oc3ccccc3c12`, the “activity, negative = inhibition” value is reported as inactive: -10.6%. `CCOC(=O)N1CCN(c2cc(C)c(C(C)=O)cc2F)CC1` was tested, and the Potency was inconclusive: 20 µM [inhibitor, partial curve]. In the case of `[O-][n+]1cccc2c(Br)cc(Br)c(O)c21`, the Potency is reported as inconclusive: 20 µM [inhibitor, partial curve]. With `Cc1ccc2nc(N3CCN(C(=O)C4COc5ccccc5O4)CC3)sc2c1` (stereo not given) the Potency was inconclusive: 11.2 µM [inhibitor, partial curve]. In the case of `N/C(=N\OC(=O)c1ccc2c(c1)OCO2)c1ccc([N+](=O)[O-])cc1`, the Potency is reported as inconclusive: 0.631 µM [inhibitor, full curve]. For `Cc1ccc(C2c3cccn3CCN2S(=O)(=O)c2ccc([N+](=O)[O-])cc2)cc1` (stereo not given), the “activity, negative = inhibition” value was inactive: -9.48%. With `COc1ccc(C(=O)NC(=S)Nc2ccc(N3CCCC3)cc2)cc1` the Potency was inconclusive: 2.24 µM [inhibitor, full curve]. In the case of `CCOC(=O)N1CCN(c2ncnc3c2cnn3-c2ccc(OC)cc2)CC1`, the Potency is reported as inconclusive: 1.41 µM [inhibitor, full curve]. With `Cc1cccc(/C=N/NC(=O)c2cc3c(s2)-c2ccccc2CC3)c1` the Potency was inconclusive: 2 µM [inhibitor, full curve]. For `CC(/C=N/NC(=O)Cc1cccn1C)=C\c1ccccc1`, the Potency was inconclusive: 4.47 µM [inhibitor, partial curve]. `Nc1nnc(SCCCC(=O)c2ccccc2)s1` was tested, and the “activity, negative = inhibition” value was inactive: -1.44%. In the case of `Oc1ccc(C=Nc2ccc(N3CCOCC3)cc2)c(O)c1`, the Potency is reported as active: 15.8 µM. With `COc1ccc(S(=O)(=O)Nc2cc(C(C)C)c(O)cc2C)cc1` the “activity, negative = inhibition” value was inactive: -8.29%. For `Cc1cc(C(=O)Nc2ccc3[nH]ccc3c2)no1`, the Potency was inconclusive: 2.51 µM [inhibitor, full curve, poor fit]. For `CCOC(=O)c1cc2c(=O)n3ccccc3nc2n(Cc2ccco2)c1=NC(=O)c1ccccc1OCC`, the Potency was inconclusive: 20 µM [inhibitor, single point]. In the case of `Cc1ccc(OCC(O)CN2CCN(Cc3ccc4c(c3)OCO4)CC2)cc1C` (stereo not given), the “activity, negative = inhibition” value is reported as inactive: -0.77%. For `COc1ccc2c(c1)[nH]c1c(=O)n(CCc3cnc[nH]3)cnc12`, the Potency was inconclusive: 11.2 µM [inhibitor, partial curve]. In the case of `CC1(C)CC(=O)c2cc(C(=O)Nc3ccc(Br)cc3)c(=O)n(-c3ccc(Cl)cc3)c2C1`, the “activity, negative = inhibition” value is reported as inactive: 0.991%. With `Cc1ccc2nc(NC(=O)c3cc(-c4ccco4)nc4ccccc34)sc2c1` the Potency was inconclusive: 7.94 µM [inhibitor, partial curve]. For `Cc1ccc(NC2=Nc3ccccc3CC2)cc1`, the “activity, negative = inhibition” value was inactive: -16.1%. For `O=C(O)c1cc(N/N=C/c2ccc3c(c2)OCO3)ccc1Cl`, the Potency was inconclusive: 12.6 µM [inhibitor, partial curve]. With `CCNc1ccc(C(=O)OCC(=O)c2cc(C)n(Cc3ccc4c(c3)OCO4)c2C)cc1[N+](=O)[O-]` the Potency was inconclusive: 6.31 µM [inhibitor, partial curve].
